Laboratory results: PubChem BioAssay AID1476 (National Center for Advancing Translational Sciences (NCATS), 2009)
About 4,500 (2.2%) of roughly 200,000 compounds were called active. This list was built around the results that the source calls inconclusive (neither active nor inactive); the mix of calls is not that of the screen. Calls follow the shape of the dose curve; as a rule, active = well fitted inhibition curve with a large enough effect; inconclusive = small, poorly fitted or top-dose-only effect, or effect the other way; inactive = flat fitted curve, though single readings scatter. A potency beside an inconclusive call is a rough fit, not a confirmed value.

The compounds below were run against Cruzipain (Trypanosoma cruzi) (UniProt P25779) (assay: qHTS Assay for Promiscuous and Specific Inhibitors of Cruzain (without detergent)). Details: purified cruzain, Z-FR-AMC fluorescence, no detergent.
UniProt P25779, sequence (P25779 whole entry, looked up): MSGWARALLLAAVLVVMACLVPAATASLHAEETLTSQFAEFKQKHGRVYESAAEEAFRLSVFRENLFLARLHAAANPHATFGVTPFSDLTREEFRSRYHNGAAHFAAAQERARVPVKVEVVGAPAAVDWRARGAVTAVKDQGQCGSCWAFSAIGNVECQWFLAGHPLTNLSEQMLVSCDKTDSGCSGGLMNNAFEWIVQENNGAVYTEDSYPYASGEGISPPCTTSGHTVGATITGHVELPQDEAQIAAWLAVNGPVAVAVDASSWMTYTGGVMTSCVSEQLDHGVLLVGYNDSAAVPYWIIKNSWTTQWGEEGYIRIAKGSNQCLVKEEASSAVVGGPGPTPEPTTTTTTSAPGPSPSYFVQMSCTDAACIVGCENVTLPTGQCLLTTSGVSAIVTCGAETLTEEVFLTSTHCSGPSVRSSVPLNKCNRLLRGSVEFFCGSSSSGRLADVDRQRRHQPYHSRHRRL
Method in brief: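 Detergent-free condition (0.00005% Triton X-100) in acetate buffer pH 5.5 with DTT. 1.5 nM enzyme and compound were pre-mixed 15 min, then 2 uM Z-FR-AMC substrate added; reaction progress from fluorescence change between first and third reads (60 s).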
Also: nearly all actives have a fitted effect of over 40% in size.
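For max response, negative = inhibition in this document: plate controls were enzyme without inhibitor for no effect and buffer without enzyme for full effect.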
Potency is read from the fitted curve at half-maximal effect; tags tell the direction and shape of the fitted curve.

Row | SMILES | max response, negative = inhibition | Potency
1 | O=C(O)C1C(C(=O)O)C(C(=O)O)C1C(=O)O (centres undefined) | inactive: 5.66% | 
2 | COc1ccc(Cn2c(CCC(=O)Nc3cc(OC)c(OC)c(OC)c3)nc3cccnc32)cc1 |  | inconclusive: 39.8 µM [activator, single point]
3 | Cc1ccc(/C=C2\SC(=S)N(Cc3ccccc3)C2=O)o1 |  | inconclusive: 31.6 µM [inhibitor, single point]
4 | O=C(CSc1nccn1Cc1ccccc1)NCc1ccco1 | inactive: 2.92% | 
5 | CCOC(=O)c1cc(-c2ccc(OC)cc2)n(CCC(=O)Nc2ccccc2OC)c1C |  | inconclusive: 25.1 µM [activator, single point]
6 | Cc1cc(C)cc(NC(=O)C(Sc2ncnc3ccccc23)c2ccccc2)c1 (centres undefined) |  | inconclusive: 25.1 µM [inhibitor, single point]
7 | COC1=CC(=O)OC(/C=C/c2ccccc2)C1 (centres undefined) |  | inconclusive: 39.8 µM [inhibitor, single point]
8 | O=C(Cn1c(=O)n(Cc2nc(-c3ccccc3)no2)c(=O)c2ccccc21)Nc1cccc(C(F)(F)F)c1 |  | inconclusive: 39.8 µM [inhibitor, single point]
9 | CCOC(=O)c1ccc(N2C(=O)c3[nH]nc(-c4ccccc4)c3C2c2ccc(CC)cc2)cc1 (centres undefined) |  | active: 12.6 µM
10 | N#Cc1c(N)nc(SCc2ccncc2)c(C#N)c1-c1cccs1 |  | active: 25.1 µM
11 | CC(=O)Oc1cc(OC(C)=O)c2c(c1)OC(c1ccc(OC(C)=O)c(OC(C)=O)c1)C(OC(C)=O)C2 (centres undefined) |  | inconclusive: 39.8 µM [activator, single point]
12 | COc1ccc(CNC(=O)C2CC(C)=C(C)CC2C(=O)O)cc1 (centres undefined) |  | inconclusive: 25.1 µM [inhibitor, single point]
13 | CN(C)c1nc(SCC#N)nc(N2CCOCC2)n1 | inactive: -7.01% | 
14 | Cc1cccc(C)c1OCCCn1c(CCNC(=O)C2CCCCC2)nc2ccccc21 | inactive: 6.65% | 
15 | O=C1C2N=NN(CC(=O)N3N=C(c4cccc5ccccc45)CC3c3ccccc3)C2C(=O)N1c1ccccc1 (centres undefined) |  | active: 5.01 µM
16 | COC(=O)CC[C@@H](C)[C@@H]1CC[C@@H]2[C@@H]3CC[C@H]4C[C@@H](O)CC[C@@]4(C)[C@@H]3CC[C@]21C | inactive: -5.2% | 
17 | CCc1ccc(NC(=O)CN2C(=O)C(c3ccc(Cl)cc3)=NC23CCCCC3)cc1 |  | inconclusive: 39.8 µM [inhibitor, single point]
18 | c1ccc(-c2nnc(CN3CCCc4ccccc43)o2)cc1 |  | inconclusive: 39.8 µM [inhibitor, single point]
19 | O=c1cc(NCc2ccccc2)nc2n1CCCS2 |  | active: 25.1 µM
